Reference: PubChem BioAssay AID686978 (National Center for Advancing Translational Sciences (NCATS), 2013)
“And” between values parts separate entries of the source, which are not always exact repeats. Equal values may be shown once. Hit rate of the full screen: of about 420,000 compounds, about 64,000 (15%) were called active. Inconclusive means that the source gave no clear call. Such entries were picked first, then a sample of the others. The call rests on the fitted dose curve; in most records, active means well fitted inhibition curve with a large enough effect; inconclusive means small, poorly fitted or top-dose-only effect; inactive means flat fitted curve, though single readings scatter. Where the call is inconclusive, the potency comes from a doubtful curve fit.

Experiment: qHTS for Inhibitors of human tyrosyl-DNA phosphodiesterase 1 (TDP1): qHTS in cells in absence of CPT; further: nearly all actives have a fitted effect of over 55% in size
Conditions: DT40 Tdp1-/- hTDP1 cells, no CPT, ATP luminescence, 48 h; activity change, negative = growth inhibition: at 46.2 µM (top of the series) unless noted
Summary of the method: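 DT40 Tdp1-/-;hTDP1 cells, no CPT (DMSO vehicle only), 400 cells/well; compounds pin-transferred; ≥48 hr, 37 °C; CellTiter-Glo 30 min RT dark, luminescence read.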
On the % scale 0 is the no-effect control and ±100 the full control effect; potency means the concentration at half of the fitted maximal effect; tags describe the fitted curve by direction and shape.

| SMILES | activity change, negative = growth inhibition | Potency |
| --- | --- | --- |
| CC1(C(=O)NS(=O)(=O)c2cccs2)CCN1C(=O)CC1CCCCC1 (stereo unspecified) | inactive: 4.29% |  |
| O=c1c2ccccc2ncn1Cc1ccco1 | inactive: -7.09% |  |
| COC(=O)c1c(NC(=O)Cc2cccs2)sc2c1CCC(C)C2 (stereo unspecified) |  | inconclusive: 35.5 µM [inhibitor, single point] |
| CC(C)c1ccc(NC(=O)C2CC(=O)N(C(C)C)C2)cc1 (stereo unspecified) |  | inconclusive: 25.9 µM [inhibitor, single point] |
| Cc1cc(C)cc(NS(=O)(=O)c2ccc3c(c2)CCCN3C(=O)C2CCC2)c1 |  | active: 20.6 µM |
| CCN(CC)CCN(Cc1cc2ccc(C)cc2[nH]c1=O)C(=O)Nc1ccc(Cl)cc1 |  | inconclusive: 10.3 µM [inhibitor, single point] |
| CCc1ccc2oc(C(=O)Nc3nonc3CC)c(C)c2c1 |  | inconclusive: 20.6 µM [inhibitor, partial curve] |
| Cn1cnc([N+](=O)[O-])c1Oc1ccccc1 |  | inconclusive: 18.4 µM [inhibitor, single point] |
| O=C(COc1ccc(F)cc1Br)Nc1ccccc1N1CCCC1 |  | inconclusive: 29.1 µM [inhibitor, single point] |
| CC(C(=O)O)c1ccc2c(c1)Cc1cccnc1O2 (stereo unspecified) |  | inconclusive: 18.8 µM [inhibitor, single point] |
| CN(CC(=O)Nc1ccc(F)cc1)C(=O)CN1C(=O)NC(CCc2ccccc2)C1=O (stereo unspecified) |  | active: 25.9 µM |
| O=C(Nc1ccccc1)N1CCN(Cc2ccc3c(c2)OCO3)CC1 | inconclusive: -30.8% [inhibitor] |  |
| CCc1cc2cc(C)ccc2nc1SCC(=O)N1CC(=O)Nc2ccccc21 |  | inconclusive: 23.1 µM [inhibitor, single point] |
| COc1ccc2[nH]cc(C(=O)CCl)c2c1 |  | active: 4.11 µM |
| Cc1cc(NC(=O)CSc2nc(C(C)(C)C)nc3ccccc23)no1 |  | inconclusive: 4.61 µM [inhibitor, full curve] |
| CCOc1ccc(S(=O)(=O)N/N=C(\C)C2CCCCC2)cc1 | inconclusive: -33.1% [inhibitor] |  |
| CCN(CC)Cc1nc2c(c(=O)[nH]1)C(CC)(CC)Cc1ccccc1-2 |  | inconclusive: 29.1 µM [inhibitor, single point] |
| CCNc1nc(SCC(=O)OC)nc(N2CCOCC2)n1 | inactive: -5.46% |  |
| Cc1sc(NC(=O)c2ccco2)c(C(c2cccnc2)N2CCCC2)c1C (stereo unspecified) |  | active: 2.31 µM |
| CCOc1c2ccc(C(=O)NCc3ccc(C)cc3)cc2nn1CC | inactive: 3.76% |  |
| CCS(=O)(=O)N1CCCC(C(=O)NCCc2ccccc2)C1 (stereo unspecified) | inactive: -0.174% |  |
| O=C(CCC(=O)N1CCSc2ccccc21)NCc1cccc(Cl)c1 | inconclusive: -30.8% [inhibitor] |  |
| Cc1ccc(S(=O)(=O)N2CCOC2CNC(=O)C(=O)NCCCc2ccccc2)cc1 (stereo unspecified) |  | active: 18.4 µM |
| O=S(=O)(c1cc(Cl)ccc1Cl)N1CCc2ccccc21 |  | inconclusive: 20.6 µM [inhibitor, partial curve] |

| SMILES | activity change, negative = growth inhibition | Potency |
| --- | --- | --- |
| Cn1c(=O)c2c(nc(NCc3ccc4c(c3)OCO4)n2Cc2ccccc2)n(C)c1=O |  | inconclusive: 29.1 µM [inhibitor, single point] |
| Cc1ccc(NC(=O)CCc2ccc(S(=O)(=O)N3CCOCC3)cc2)c(Cl)c1 |  | inconclusive: 25.9 µM [inhibitor, single point] |
| O=C(NNC(=O)c1ccc(O)c(Cl)c1)c1cccc(S(=O)(=O)N2CCOCC2)c1 |  | inconclusive: 29.1 µM [inhibitor, single point] |
| Cc1cc(C)c(S(=O)(=O)c2ccccc2)c(OC(=O)c2cc(F)c(F)cc2Cl)n1 |  | inconclusive: 13 µM [inhibitor, partial curve] |
| COc1cc(/C=N/NC(=O)CN(Cc2ccccc2)S(=O)(=O)c2ccc3c(c2)OCCO3)ccc1O |  | inconclusive: 23.1 µM [inhibitor, single point] |
| O=C(Cc1csc(NC(=O)Nc2cccc(Cl)c2)n1)NCc1cccnc1 |  | inconclusive: 13 µM [inhibitor, partial curve] |
| O=C(COC(=O)c1ccccc1O)NCCc1c[nH]c2ccccc12 | inconclusive: -33.4% [inhibitor] |  |
| CC(C)(C)Cc1c(-c2ccc(C#N)cc2)nc2c(Cl)cc(C(F)(F)F)cn12 |  | inconclusive: 20.6 µM [inhibitor, single point] |
| Oc1ccccc1CN1CCC(C(O)(c2ccccc2)c2ccccc2)CC1 |  | inconclusive: 0.58 µM [inhibitor, full curve, poor fit] |
| CCCCNC(=O)Cn1c(=O)oc2cc(S(=O)(=O)N3CC(C)CC(C)C3)ccc21 (stereo unspecified) |  | inconclusive: 18.4 µM [inhibitor, single point] |
| Cc1cccc(C)c1NC(=O)CN1CCN(C(=O)c2ccc(OCc3cn4ccccc4n3)cc2)CC1 |  | inconclusive: 29.1 µM [inhibitor, single point] |
| COc1ccccc1C(=O)NC(CCSC)C(=O)OCC(=O)N1CCCC1=O (stereo unspecified) | inactive: -13% |  |
| Cc1cccc(C)c1NC(=O)CNC(=O)C(C)N1CCN(c2cccc(Cl)c2)CC1 (stereo unspecified) |  | inconclusive: 20.6 µM [inhibitor, single point] |
| C[C@H]1CN([C@@H](C)CO)C(=O)c2cccc(NC(=O)C3CC3)c2O[C@H]1CN(C)S(=O)(=O)c1ccccc1 | inactive: -25.2% |  |
| CCOc1cc(-c2nc(-c3ccc(Br)cc3)no2)cc(OCC)c1OCC | inactive: -7.64% |  |
| O=C(COc1ccccc1)N(Cc1cccnc1)c1nc2ccc(F)cc2s1 | inactive: -12.2% |  |
| Cc1ccc(S(=O)(=O)N2CCC(C(=O)Nc3ccccc3N3CCCC3)CC2)c(C)c1 |  | inconclusive: 23.1 µM [inhibitor, single point] |
| O=C(NC(c1ccc(Cl)cc1)c1c(O)ccc2ccccc12)c1ccccc1 (stereo unspecified) |  | inconclusive: 23.1 µM [inhibitor, single point] |
| O=C(NC1CCCC1)c1cccc2c1C(=O)c1ccc(N3CCCCC3)cc1S2(=O)=O |  | inconclusive: 25.9 µM [inhibitor, single point] |
| O=C(NCCCc1ccc(F)cc1)C1CCC(=O)N(CCN2CCOCC2)C1 (stereo unspecified) | inactive: 3.68% |  |
| S=c1[nH]nc(-c2ccccc2)c2ccccc12 |  | inconclusive: 29.1 µM [inhibitor, single point] |
| CCOC(=O)c1ccccc1NC(=O)CSc1ccc(-c2ccccn2)nn1 |  | inconclusive: 29.1 µM [inhibitor, single point] |
| O=C(O)CCC(=O)Nc1ccc(-c2nnc(-c3ccco3)o2)cc1 | inactive: 1.14% |  |
| COc1ccccc1C(=O)Nc1ccc(S(=O)(=O)Nc2cnc3ccccc3n2)cc1 | inactive: -22.9% |  |

| SMILES | activity change, negative = growth inhibition | Potency |
| --- | --- | --- |
| COc1ccccc1NC(=S)NCc1ccccn1 |  | active: 4.11 µM |
| COCCCNC(=O)c1ccc2c(=O)n(Cc3ccc(OC)cc3)c(=O)[nH]c2c1 |  | inconclusive: 14.6 µM [inhibitor, partial curve] and inconclusive: 10.3 µM [inhibitor, partial curve] |
| C#CCOCCOCCOCCNc1nc(N2CCN(C(=O)Cn3cc(CCO)nn3)CC2)nc(N2CCN(C(=O)[C@H](Cc3ccc(O)cc3)n3cc(CCO)nn3)CC2)n1 | inactive: -6.55% |  |
| CSCC(=O)N1CCC(n2nccc2NC(=O)CCc2ccccc2)CC1 | inactive: 12.2% |  |
| COC(=O)c1ccccc1NC(=O)COc1ccccc1C(=O)Nc1ccccc1 |  | inconclusive: 31.6 µM [inhibitor, single point] |
| COc1ccccc1OCc1cc(C(=O)NCCN2CCCC(O)C2)no1 (stereo unspecified) | inactive: 0.874% |  |
| c1ccc(-c2cc3nc(NCc4cccs4)nc(NCc4ccc5occc5c4)c3s2)cc1 |  | inconclusive: 29.1 µM [inhibitor, single point] |
| COc1ccc(CCNC(=O)C2CCCN(c3nc4c(C)cc(C)cc4s3)C2)cc1OC (stereo unspecified) |  | active: 13 µM |
| COc1cccc(N2CCN(c3ccc([N+](=O)[O-])cn3)CC2)c1 | inactive: 1.41% |  |
| Cc1nc(-c2ccc(C)c(S(=O)(=O)N3CCC(C(=O)NCc4ccc(Cl)cc4)CC3)c2)no1 |  | inconclusive: 2.31 µM [inhibitor, partial curve] |
| CCNC(=O)N1CCN(S(=O)(=O)c2ccc3c(c2)OCCCO3)CC1 | inactive: -11.4% |  |
| COc1ccc(NC(=O)c2cc(S(=O)(=O)N3CCc4ccccc43)cn2C)c(OC)c1 |  | inconclusive: 29.1 µM [inhibitor, single point] |
| CC(C)CC(c1nnnn1C1CCCCC1)N1CCN(c2ncccn2)CC1 (stereo unspecified) |  | inconclusive: 7.31 µM [inhibitor, partial curve] |
| Cc1ccc(Nc2cc(C)nc3ccc(C)cc23)cc1 |  | inconclusive: 29.1 µM [inhibitor, single point] |
| Cn1c(=O)c2c(SCC(=O)N3CCCc4ccccc43)nc(CC(C)(C)C)nc2n(C)c1=O |  | inconclusive: 18.4 µM [inhibitor, single point] |
| CC(C(=O)NCC1CCCCC1)N1CCN(S(=O)(=O)c2ccccc2F)CC1 (stereo unspecified) | inactive: -16.1% |  |
| Cc1cc(Cl)cc(Cl)c1OCCN1CCCC1 | inactive: 6.8% |  |
| CCCCc1cc(=O)oc2cc(OCc3nn[nH]n3)c(Cl)cc12 | inactive: -4.76% |  |
| S=c1[nH]nc(-c2cc(-c3ccccc3)n[nH]2)n1/N=C/c1c(Cl)cccc1Cl |  | inconclusive: 23.1 µM [inhibitor, partial curve] |
| COc1ccc(/C=N/NC(=O)c2ccccc2OCc2ccccc2)c(OC)c1 |  | active: 18.4 µM |
| Cc1cccc(CSc2nc3c(c(=O)[nH]2)C(c2cccc(O)c2)CC(=O)N3)c1 (stereo unspecified) | inactive: -52.3% |  |
| Cc1ccc(S(=O)(=O)C(CNC(=O)c2ccccc2F)c2cccs2)cc1 (stereo unspecified) |  | active: 14.6 µM |
| Cc1ccc(NC(=O)CN(c2ccccc2)S(=O)(=O)N(C)C)cc1 |  | inconclusive: 29.1 µM [inhibitor, single point] |
